From publication PMC12136788
Some of the results follow.

T1: UNK ZnF1-3 (human, UniProt Q9C0B0 31-174)
T1 sequence: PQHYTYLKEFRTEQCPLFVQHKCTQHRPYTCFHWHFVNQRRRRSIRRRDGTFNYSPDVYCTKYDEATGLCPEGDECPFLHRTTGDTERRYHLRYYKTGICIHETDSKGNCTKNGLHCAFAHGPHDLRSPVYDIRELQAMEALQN

B1: chr5:145888941:145888942:+_ENSMUSG00000029622_ENSMUST00000085679|mus_hu|FALSE|FALSE (ssRNA)
RNA: GGGAGUUCUACAGUCCGACGAUCCUCCACAUUUUGAAGCAGUUCAUGACCAGCAUAGUGCUUUGGGGGCAUUUUUUUUUUUUUUCAAUAAAUGAAAGCAUUUAAGAAAAAGGCACGUAUUCCUUGAAUAGGUAAGAAAAGCUCCAACAGAGGAUUGAGCAUCA
B2: chr16:75661828:75661829:-_ENSG00000065427_ENST00000302445|hu_mus|FALSE|FALSE (ssRNA)
RNA: GGGAGUUCUACAGUCCGACGAUCAUGUGCCUUCUAGACAGAGGGGCUGGCCUCUGUGCUCUCUGGGGUUUCAGUGGUCGCUGCAGUUUCCUUCUUGUCCUCUGGCUUCAUGGCAGGAAACAGAAGUACUUCCUUGAUAUUGUUCAACAGAGGAUUGAGCAUCA
B3: 186738473_186740042_1061_3pUTR_ENSMUSG00000026620_ENSMUST00000027929|mouse|control|control (ssRNA)
RNA: GGGAGUUCUACAGUCCGACGAUCUUCAUCUCGUGCAAAACCCAUGGUGACCAUAAUGUCUAUUCUUUUUGCAUCGCUGAGAUCAAGCUCAGGCUCAGAGUACGGCUUUAGCUCUUCUUCCUCAUGACCAACAUUCAUCCAUCGCAACAGAGGAUUGAGCAUCA
B4: chr12:42180722:42180723:-_ENSMUSG00000036295_ENSMUST00000043884|mus_hu|FALSE|FALSE (ssRNA)
RNA: GGGAGUUCUACAGUCCGACGAUCCUGUAGGAGAAGAAUCUGUGUGUUAGCUGGCAAUCUGGCUGGGAAAGUUAAAAGACCUAAAUCAUUACAAUCCACUGUAGAUGCUUCCAUAUAAAUGGAUCUGGGUGUAAACCAAGGCCUCAACAGAGGAUUGAGCAUCA
B5: chr9:14812383:14812384:-_ENSMUSG00000031934_ENSMUST00000164273|mus_mus|mus_mus_mus_hu_True|98_98 (ssRNA)
RNA: GGGAGUUCUACAGUCCGACGAUCAUAGCCCAGGUAGAUACAUGCCAACAGUAUAAUGAUGAGUGUCAGCAGGCGGCAGCUAAUGUACUUGAUGAUUAAAUUAUUAGAAUUUUUCUUUGUCUUCAAGUACUGCUCCACAAUUGGCAACAGAGGAUUGAGCAUCA
B6: chr5:137520266:137520267:+_ENSG00000112984_ENST00000394894|hu_hu|motif|central (ssRNA)
RNA: GGGAGUUCUACAGUCCGACGAUCAUCAAGGCCUGUGUCUGCCUUAGCCCCUUUCUCUAAGCUGGGGGAUACCUGAAGACGGUGUUCCUUGAUGAACGAGUGCAGGGAUGGGAAUCCCAGUUGCAUAGGUGGGGCAUGCACAAGCAACAGAGGAUUGAGCAUCA
B7: chr4:17845017:17845018:+_ENSG00000109805_ENST00000514176|hu_mus|FALSE|FALSE (ssRNA)
RNA: GGGAGUUCUACAGUCCGACGAUCGCUCUCUUAACUUGUAUCUUCAUUAAGGAACUCUGCAAGGUUAAGUUUACUUUUCUGUAGCGCAGCUGUUUUGGCUCGUCUGGGUAAUCUCAUCUUCAUUUCUGAUGGUGGUUCAUGAUCCAACAGAGGAUUGAGCAUCA
B8: chr17:61910164:61910165:-_ENSG00000108604_ENST00000448276|hu_mus|motif|central (ssRNA)
RNA: GGGAGUUCUACAGUCCGACGAUCCAGUAAUAAGGCUUUGGGAACCAAGCAGUGAGGGAUCUAAAACUACAUUUAUGAAACGGAAGCUGGGGAGUGGAGGGUGACAGGAAACACACCUCACUCCAUCCUACAUGUCUGCAGCCCCAACAGAGGAUUGAGCAUCA
B9: chr16:94690367:94690368:+_ENSMUSG00000040785_ENSMUST00000117648|mus_mus|FALSE|FALSE (ssRNA)
RNA: GGGAGUUCUACAGUCCGACGAUCUCUGUAUUUGCCACUGCCUACAGGUCACUAAAAAUACCUAGUUUUUGAAUAGUUUCUAAUACAGUUAGCUUGUUUUCAGGCCACAUUACAAGAUUGCAUGCAUUACUUUACACAAAAGUCCAACAGAGGAUUGAGCAUCA
B10: chr9:49313425:49313426:-_ENSMUSG00000039542_ENSMUST00000166811|mus_mus|FALSE|FALSE (ssRNA)
RNA: GGGAGUUCUACAGUCCGACGAUCUUUUAAAGGCAAAAGACACUAGAGGAAUGUGUUUGUGUGUGCGUGUGUGUGUGUGUGUGUGUGUGUGUGUGUGUGUGUGUAUGUGAGAGAGAGAGAGGGGGGGGGAUUAUUUGGGGAUGCCAACAGAGGAUUGAGCAUCA
B11: chr22:32879901:32879902:+_ENSG00000100225_ENST00000397426|hu_mus|hu_hu_hu_mus_False|8_58 (ssRNA)
RNA: GGGAGUUCUACAGUCCGACGAUCCUCUUCCAUACUCAUGGCAUCCUGAAUUGACUCAGCUUCAACAUUUUGACUAGGCCCUAACAUACUGUCAUCAGUCCAGGCAUCAAAUGGGGUGGCCUGUCCUUGGAAUGAAUCAGUCCCCAACAGAGGAUUGAGCAUCA
B12: chr5:21252845:21252846:+_ENSMUSG00000029017_ENSMUST00000030882|mus_mus|FALSE|FALSE (ssRNA)
RNA: GGGAGUUCUACAGUCCGACGAUCGUUUGCGACCAUGAGACAGAUCGUGUCUGGAUGGGCCCAACCAACUGCUUCAACAGCUAUUGCAAGGUGCGCCAAUGGCAUCUUGUCAUCCCUCACCCGAAUCUCACUUCCAGUGAACUUCAACAGAGGAUUGAGCAUCA
B13: chr1:66829163:66829164:+_ENSG00000184588_ENST00000423207|hu_hu|FALSE|FALSE (ssRNA)
RNA: GGGAGUUCUACAGUCCGACGAUCUACAUCAGCAGCGUGCAGGCUGUUGUGAUAUGCCACGUCAGAAUGGUAAUGGUCUUCUAAAGUCAUCAUGUAGGUUAUAAAUGUGUCAGAUGAGAUUCUGAAUGUCUUUAGGAGGUCUCUCAACAGAGGAUUGAGCAUCA
B14: chr4:144460044:144460045:+_ENSG00000153147_ENST00000283131|hu_mus|hu_hu_hu_mus_False|78_88 (ssRNA)
RNA: GGGAGUUCUACAGUCCGACGAUCACGGUCCAUAGCCUGAAGAUCAACUUGGGGAUUCCAAUCAGAAUCAUAUAAAAUGACUACAUCAGCAGUUGCAAGAUUGAUGCCCAGACCACCAGCACGUGUGCUUAGCAUAAAUACAAACAACAGAGGAUUGAGCAUCA
B15: chr16:94646735:94646736:+_ENSMUSG00000040785_ENSMUST00000117648|mus_hu|FALSE|FALSE (ssRNA)
RNA: GGGAGUUCUACAGUCCGACGAUCAGUUUUUAACUUCUUCCAGCAAUUCAUGUGAAAUUCUAUUUUACAGUACUGGCAACAGCUGAUGCGUAUAAAACCCUUAAAGUCUGGAUCAGUUAUGUAUAUCUGGAUCUUAGAAUAUCCCAACAGAGGAUUGAGCAUCA
B16: chr4:57314706:57314707:+_ENSG00000128050_ENST00000264221|hu_mus|hu_hu_hu_mus_True|88_108 (ssRNA)
RNA: GGGAGUUCUACAGUCCGACGAUCCAGUAUUUCAAAUAUAGCUUGUGUAGCAUGACUCAUGAUGUCCACUUCAGUCUGCCCUAUAACAAGGCCAGCAAAACAGAAUUUUGCAGCAAUGAGUUGCUCCUCAGACCACUGUGGAUCCAACAGAGGAUUGAGCAUCA
B17: 196541394_196545002_1390_CDS_ENSG00000180370_ENST00000327134|human|control|control (ssRNA)
RNA: GGGAGUUCUACAGUCCGACGAUCCAAAAGUACAUUGUCACUUUUGAUGUCUCUGUGGAUCACUUGAUUAGCAUGUAAAAACUCCAAUGCCUGUAAACACUCUCUGCAUACAGCAGCAAUCUGUGCUUCAUCCAUGCACGUUUCCAACAGAGGAUUGAGCAUCA
B18: chr1:36605538:36605539:-_ENSMUSG00000026121_ENSMUST00000114991|mus_hu|FALSE|FALSE (ssRNA)
RNA: GGGAGUUCUACAGUCCGACGAUCUAGCCCCAUCAGAGCAAUCGUUUCAUUUUCUCCAUUUUAUUUGUCAAUAUAAAAAUACUCAAAUAUUUACAACAAAUAAAUACGCGGGGACACAAUAAGUUACACUGUUAGGAGCCCUCCCAACAGAGGAUUGAGCAUCA
B19: 152987062_152987182_84_3pUTR_ENSMUSG00000068040_ENSMUST00000089027|mouse|control|control (ssRNA)
RNA: GGGAGUUCUACAGUCCGACGAUCUAGUGAGGAGGUAAAAGAAGCUUAAUUUCUCCUUGGCAGAUUGGCCUUGGCAGUGAGGUCUCUGACUAGGUGAAGAGAACGUACGGUGUAACUAUUGGAGCCAUAUUGACUUCUGGCAGACAACAGAGGAUUGAGCAUCA
B20: chr2:91389038:91389039:+_ENSMUSG00000040549_ENSMUST00000099716|mus_hu|FALSE|FALSE (ssRNA)
RNA: GGGAGUUCUACAGUCCGACGAUCUAAUCCUUUCAAUUGAACCACUGCAUUGGAAUCAGUGACAAAUUUUUUGAUCAAUCCUAAAAAUUUGGACCACUCUGGGCUCUUUUCAUCCUUUAUUUUCUGGAAGAUCUUCAGGGCCUCCAACAGAGGAUUGAGCAUCA
B21: 7357879_7357999_720_CDS_ENSMUSG00000019795_ENSMUST00000163085|mouse|control|control (ssRNA)
RNA: GGGAGUUCUACAGUCCGACGAUCUAAAGGCACGUAUAUCACCCCCAUGAGAGGUUUCAUUUUGACACUGCCAUCUUGUAGCUUGUCAUACUGCUCCAACAUUUGGUUUCCUCCUGCAGGACCGACUGGCAAUAUCAAUCUUCCCAACAGAGGAUUGAGCAUCA
B22: chr13:67002414:67002415:-_ENSMUSG00000021520_ENSMUST00000021993|mus_mus|FALSE|FALSE (ssRNA)
RNA: GGGAGUUCUACAGUCCGACGAUCAUCCUUAGGCAAGAUCUGAUGCCUCAUAGUCAGGUCCAGGGCUCUCUUAAUUCGAAACAUCCUGUCAUUAUAAAGGUCCUCAGGAAGCCUUCUUAUGGCUUCUUUUACAUCUUCAGUUUCCAACAGAGGAUUGAGCAUCA

These binders were tested against T1, UNK ZnF1-3 (assay: nsRBNS (natural sequence RNA bind-n-seq); RBNS binding buffer (assumed for nsRBNS): 25 mM Tris pH 7.5, 150 mM KCl, 3 mM MgCl2, 0.01% Triton X-100, 500 ug/ml BSA, 20 U/ml SUPERase-In, 4 C; UNK is unkempt and MSI1 is Musashi-1; names of the RNAs are library labels; protein concentration not given here; high values mean tight binding).

Row | Binder | binding signal [enrichment R]
1 | B1 | 1.5
2 | B2 | 0.451
3 | B3 | 0.836
4 | B4 | 1.2
5 | B5 | 1.49
6 | B6 | 1.04
7 | B7 | 0.404
8 | B8 | 1.23
9 | B9 | 0.969
10 | B10 | 1.16
11 | B11 | 1.39
12 | B12 | 0.465
13 | B13 | 0.776
14 | B14 | 1.45
15 | B15 | 0.826
16 | B16 | 0.974
17 | B17 | 0.591
18 | B18 | 1.07
19 | B19 | 0.885
20 | B20 | 0.862
21 | B21 | 0.652
22 | B22 | 0.536
